About 410 (8.5%) of roughly 4,800 compounds showed an effect of 50% or more. This is one part of the list.
These compounds were tested on Plasmodium falciparum (assay: Confirmatory screen in NF54 pLDH assay, in single point, at 2uM, 72h). Conditions: timepoint 72 hour.
Assay type: functional, Erythrocyte
With `COc1cccc(-c2noc3nc(C)cc(C(=O)NCCCn4ccc(C)n4)c23)c1` the “% Inhibition” value was 11%. For `c1coc([C@H](CNC2CCCC2)N2CCCC2)c1`, the “% Inhibition” value was -12%. `CCOC(=O)[C@@H]1C(=O)Nc2cc(OC)ccc21` was tested, and the “% Inhibition” value was 9%. For `C[C@@H](CO)NC(=O)Nc1cc(Br)c(F)cc1Cl`, the “% Inhibition” value was 13%. `O=C1NC(=O)[C@@H]2CN(C(=O)[C@@H]3CCO[C@H]3c3ccc(Cl)c(F)c3)C[C@H]12` was tested, and the “% Inhibition” value was 9%. For `CC(C)NC(=O)CN(C)S(=O)(=O)c1ccc(Br)cc1`, the “% Inhibition” value was -12%. In the case of `Cc1cc(-c2ccccc2)c(C#N)c(=O)n1C(=O)c1ccc(C#N)cc1`, the “% Inhibition” value is reported as 11%. With `CN(CC(=O)Nc1ncccn1)S(=O)(=O)c1ccc2c(c1)OCCCO2` the “% Inhibition” value was -13%. For `O=C(O)Cc1cccc(NC(=O)C2C3Cc4ccccc4C32)c1` (stereo not given), the “% Inhibition” value was 2%. `O=C(NC1CCCCC1)c1cc2c(Cl)ccc3c2n1CCO3` was tested, and the “% Inhibition” value was -22%. In the case of `O=C(NC1CCCOC1)NC1CCCOc2c1ccc1ccccc21` (stereo not given), the “% Inhibition” value is reported as 7%. For `CC(=O)Nc1ccc(S(=O)(=O)NCc2ccc(C(=O)NC3CCC(C)CC3)cc2)cc1` (stereo not given), the “% Inhibition” value was 11%. For `O=C(Nc1cccc(Cl)c1)Nc1cccc(-c2cnc3n2CCC3)c1`, the “% Inhibition” value was 75%. With `Cc1c(-c2ccccc2Br)[nH]c2cc3c(cc2c1=O)OCCO3` the “% Inhibition” value was -24%. `COc1ccc(N2CCN(Cc3c(O)nc(O)c(C#N)c3C)CC2)cc1` was tested, and the “% Inhibition” value was 2%. With `Cc1c2c(=O)n(-c3nc4ccccc4s3)n(Cc3ccccc3)c2cc(=O)n1Cc1ccc2c(c1)OCO2` the “% Inhibition” value was 21%. In the case of `COCc1nncn1C1CN(C(=O)Cc2ccc(OC)c(OC)c2)C1`, the “% Inhibition” value is reported as -12%. In the case of `Cn1nc(-c2nc(-c3ccc(F)cc3)no2)c2c1CCN(C(=O)c1cccc(Cl)c1)C2`, the “% Inhibition” value is reported as 2%. For `Brc1ccc2c(c1)c1cc(Br)cc(Br)c1n2CN1CCOCC1`, the “% Inhibition” value was -19%. `O=C(Cc1cc(F)c(F)cc1F)N1CCOC[C@H]1c1ncon1` was tested, and the “% Inhibition” value was 9%. For `O=C(N[C@@H](N1CCCC1)C(Cl)(Cl)Cl)c1ccc(Cl)cc1`, the “% Inhibition” value was -13%. With `CCC(=O)N(CCN(C)C)Cc1c(-c2ccccc2)noc1N1CCCCC1` the “% Inhibition” value was 13%. In the case of `O=C(Cc1ccc(F)cc1F)N1CCc2[nH]nc(C(=O)N3CCN(c4ccccc4)CC3)c2C1`, the “% Inhibition” value is reported as 5%. For `CC(=O)N(C1CCOCC1)[C@H]1CCCN(C(=O)Cc2cccnc2)C1`, the “% Inhibition” value was -4%. With `O=C(N1CCCN(c2nc3ccccc3nc2-c2ccccc2)CC1)C(Cl)(Cl)Cl` the “% Inhibition” value was 36%. `Cc1ccc(CN(CCN2CCCC2)Cc2ccc(C)o2)o1` was tested, and the “% Inhibition” value was 9%. `CCn1nc(CNC[C@H](C)O)c(-c2ccccc2)n1` was tested, and the “% Inhibition” value was -5%. With `CC1CCCCC1OCCN1CCCC(C2(C)NC(=O)NC2=O)C1` (stereo not given) the “% Inhibition” value was 2%. `COc1ccc(CNC(=O)c2cc(C(=O)c3ccc(F)cc3)c[nH]2)cc1` was tested, and the “% Inhibition” value was -15%. For `COc1ccc(CCNCC(=O)Nc2c3c(nc4ccccc24)N(C)CC3)cc1OC`, the “% Inhibition” value was 6%. `CCOc1ccccc1C(=O)Nc1c(-n2cnnc2)nn(C)c1C` was tested, and the “% Inhibition” value was -2%. With `CC1CC(C(=O)Nc2[nH]c(=O)ncc2F)CC(C)(C)C1` (stereo not given) the “% Inhibition” value was 84%. With `O=C(NS(=O)(=O)c1ccc2c(c1)OCCCO2)c1cc2c(s1)CCC2` the “% Inhibition” value was 4%. For `CC1CCC(NC(=O)[C@H]2CCS(=O)(=O)C2)CC1` (stereo not given in full), the “% Inhibition” value was -16%. For `Cc1ncc(CN(CCN(C)C)CC2CCCCC2)s1`, the “% Inhibition” value was -3%. With `Cc1ccc(/N=C(/Nc2ccc(Br)cc2)c2cc(C(C)(C)C)c(O)c(C(C)(C)C)c2)cc1` the “% Inhibition” value was -12%. `CCOc1cc(=O)c(C(=O)N2CCC(C(N)=O)CC2)nn1-c1ccc(F)cc1` was tested, and the “% Inhibition” value was 5%. With `Cc1nccn1-c1cc(CNC(=O)[C@H]2CCCN(S(=O)(=O)c3cccs3)C2)ccn1` the “% Inhibition” value was 7%. For `COCCc1nc(C2(Nc3ccc(Cl)cc3)CCC2)no1`, the “% Inhibition” value was 8%. With `COc1cccc(C(=O)N2C[C@@H]3C[C@H](NC(=O)c4ccccc4)[C@H]2C3)c1OC` the “% Inhibition” value was -2%. For `Cc1cc(NC(=O)c2ccc[nH]2)ccc1Oc1ccncc1`, the “% Inhibition” value was 1%. `O=S(=O)(Nc1cccc2cccnc12)c1cccs1` was tested, and the “% Inhibition” value was 64%. In the case of `O=C(NCC1(Cc2ccccc2)CCC1)N(CCO)C1CC1`, the “% Inhibition” value is reported as -1%. With `COc1cccc(Cn2nc3ccc(S(=O)(=O)N4CCCC4)cn3c2=O)c1` the “% Inhibition” value was 11%. For `O=C1c2ccccc2[C@H]2N1CCN2c1ccccc1`, the “% Inhibition” value was 8%. For `Cc1c(C2=NO[C@H]3C(=O)N(c4ccc5ccccc5c4)C(=O)[C@@H]23)cnn1C`, the “% Inhibition” value was 8%. For `CC(C)c1ocnc1C(=O)N[C@](C)(C#N)CCc1ccccc1`, the “% Inhibition” value was 9%. With `Cc1cccc(C(=O)N2CCc3[nH]nc(C(=O)N[C@H]4CCCc5ccccc54)c3C2)c1` the “% Inhibition” value was -1%. In the case of `COc1ccc([C@@H]2NC(=O)c3cc(C(C)C)sc3N2)cc1COc1ccc(F)cc1F`, the “% Inhibition” value is reported as 7%. For `COc1ccc(NC(=O)Cn2cnc3nc(N(C)Cc4ccccc4)sc3c2=O)cc1Cl`, the “% Inhibition” value was -10%. `O=C([C@H]1CC(=O)N(c2ccc(F)c(Cl)c2)C1)N1CCN(C(c2ccccc2)c2ccccc2)CC1` was tested, and the “% Inhibition” value was 10%. In the case of `Cc1ccc(OCC(=O)Nc2ccc(N3CCn4c(nc5ccccc54)C3)cc2Cl)cc1`, the “% Inhibition” value is reported as -20%. `CCCN1CCN(CCCNC(=O)c2ccc(Cl)c(-n3c(C)nc4cccnc43)c2)CC1` was tested, and the “% Inhibition” value was 13%. In the case of `Cc1ccc(-c2nn[nH]n2)cc1-n1cccn1`, the “% Inhibition” value is reported as 6%. For `Cn1cc(-c2cc(-c3cnn(C)c3)n(S(=O)(=O)c3ccc(Cl)cc3)n2)cn1`, the “% Inhibition” value was -17%. `O=C(c1cc(-c2ccncc2)on1)N1CCOC2(CCCCCC2)C1` was tested, and the “% Inhibition” value was 8%. `N[C@@H](CO)c1cccc(Br)c1` was tested, and the “% Inhibition” value was 4%. `O=C(Cc1ccc(Cl)cc1Cl)N1CCc2[nH]nc(C(=O)N3CCN(c4ccccc4)CC3)c2C1` was tested, and the “% Inhibition” value was 5%. `O=C(CCc1ccc2cc[nH]c2c1)NCc1cccc(Cl)c1` was tested, and the “% Inhibition” value was 5%. For `FC(F)(F)c1ccc(-c2nc(Cn3ccnn3)co2)cc1`, the “% Inhibition” value was 2%. In the case of `COC(=O)c1cc(Cl)cc(NC(=O)CC2CCNCC2)c1`, the “% Inhibition” value is reported as -15%. `Cc1nc(-c2ccc(N3CCC(NCCCn4ccnc4)CC3)cc2)cs1` was tested, and the “% Inhibition” value was 23%. For `CCCc1nnc(NC(=O)C(=O)OCC)s1`, the “% Inhibition” value was -3%. In the case of `COc1ccc(CCc2nnc3n2CCOC3)cc1`, the “% Inhibition” value is reported as -1%. In the case of `Cc1cc(N2CCN(c3ccccn3)CC2)n2cc(-c3ccccc3)nc2n1`, the “% Inhibition” value is reported as 14%.

From ChEMBL document CHEMBL4888484, “Replenishing the malaria drug discovery pipeline: Screening and hit evaluation of the MMV Hit Generation Library 1 (HGL1) against asexual blood stage Plasmodium falciparum ,using a nano luciferase reporter read-out” (2022)
